The list shows a part of the results.

The test deals with S. aureus RN4220. As to the kind of experiment: growth inhibition call (relative growth <= 0.2). The settings on record: 50 µM.
Take `C[C@H]1CN([C@@H](C)CO)C(=O)c2cccc(NC(=O)c3ccncc3)c2O[C@@H]1CN(C)Cc1ccncc1`: the growth inhibition call was “inactive”.

Consider `C[C@H](CO)N1C[C@H](C)[C@H](CN(C)Cc2ccc(Oc3ccccc3)cc2)OCc2ccccc2-c2c(n(C)c3ccccc23)C1=O`, for which the growth inhibition call was “inactive”.

`C[C@@H]1CCCCO[C@@H](CN(C)C(=O)Cc2ccccc2)[C@@H](C)CN([C@@H](C)CO)C(=O)c2cc(NC(=O)Nc3ccc(F)cc3)ccc2O1`: the growth inhibition call is “inactive”.

For the compound `C[C@H](CO)N1C[C@H](C)[C@H](CN(C)Cc2ccc3c(c2)OCCN3C)OCc2ccccc2-c2c(n(C)c3ccccc23)C1=O`, the growth inhibition call was “inactive”.

Turning to `Cc1noc(C)c1S(=O)(=O)Nc1ccc2c(c1)C(=O)N([C@H](C)CO)C[C@@H](C)[C@H](CN(C)C(=O)Nc1ccc3c(c1)OCO3)O2`, the growth inhibition call is “inactive”.

Regarding `O=C(NO)c1cccc(C(=O)N/N=C/[C@H](O)[C@@H](O)[C@H](O)[C@H](O)CO[C@H]2O[C@H](CO)[C@H](O)[C@H](O)[C@H]2O)c1`, the growth inhibition call is “inactive”.

In the case of `N[C@H](C(=O)O)[C@@H](OCc1ccccc1)C(=O)O`, the growth inhibition call is “inactive”.

In the case of `CO[C@H]1CN(C)C(=O)c2ccc(NS(C)(=O)=O)cc2OC[C@H](C)N(C(=O)CN(C)C)C[C@@H]1C`, the growth inhibition call is “inactive”.

As for `COc1ccccc1S(=O)(=O)N[C@H]1C=C[C@@H](CC(=O)N2CCN(C)CC2)O[C@@H]1CO`, the growth inhibition call was “inactive”.

Regarding `C[C@H]1CN([C@@H](C)CO)C(=O)c2cc(C#Cc3ccc(F)cc3)cnc2O[C@@H]1CN(C)CC1CCOCC1`, the growth inhibition call was “inactive”.

Regarding `C[C@H](CO)N1C[C@H](C)[C@@H](CN(C)S(=O)(=O)c2cn(C)cn2)Oc2c(NC(=O)c3cnccn3)cccc2C1=O`, the growth inhibition call was “inactive”.

Turning to `CC(=O)OCC(=O)C1(O)C(OC(C)=O)CC2C3CCC4=CC(=O)C=CC4(C)C3(F)C(O)CC21C` (stereo not given), the growth inhibition call was “inactive”.

Regarding `Cc1cc(C(=O)NCc2cccn2C)nn1C`, the growth inhibition call was “inactive”.

On to `CN1CCN(C(=O)C[C@@H]2CC[C@@H](NC(=O)c3ccc4c(c3)OCO4)[C@@H](CO)O2)CC1`, for which the growth inhibition call is “inactive”.

Take `N=C(N)Nc1nc2ccccc2[nH]1`: the growth inhibition call was “inactive”.

Turning to `C[C@@H]1CN([C@@H](C)CO)C(=O)c2cccc(NS(=O)(=O)c3ccc(Cl)cc3)c2O[C@@H]1CN(C)C(=O)Nc1cccc2ccccc12`, the growth inhibition call was “inactive”.

For the compound `N[C@@H](CSCCCO)C(=O)O`, the growth inhibition call was “inactive”.

For the compound `C[C@@H]1CN([C@H](C)CO)C(=O)c2cccc(NC(=O)c3ccc(-c4nccs4)cc3)c2O[C@H]1CN(C)C(=O)Nc1ccc(F)cc1`, the growth inhibition call is “inactive”.

Turning to `COc1ccc(CN(C)C[C@@H]2Oc3ccc(NC(=O)Nc4cccc5ccccc45)cc3CC(=O)N([C@H](C)CO)C[C@@H]2C)cc1`, the growth inhibition call was “inactive”.

With `COc1cccc(NC(=O)N[C@H]2CC[C@@H](CC(=O)N3CCN(C)CC3)O[C@H]2CO)c1`, the growth inhibition call is “inactive”.

`Cc1noc(C)c1NC(=O)Nc1ccc2c(c1)C(=O)N([C@@H](C)CO)C[C@H](C)[C@H](CN(C)Cc1ccccc1)OCCCC[C@H](C)O2`: the growth inhibition call was “inactive”.

As to `O=C(C[C@H]1CC[C@@H]2[C@H](COC[C@@H](O)CN2Cc2cc(F)ccc2F)O1)N[C@@H]1CCN(Cc2ccccc2)C1`, the growth inhibition call is “inactive”.

On to `C[C@@H]1CN([C@H](C)CO)C(=O)c2cc(/C=C/c3ccccc3)cnc2O[C@@H]1CN(C)S(=O)(=O)c1cn(C)cn1`, for which the growth inhibition call is “inactive”.

As for `COCC(=O)N1CC(=O)N2[C@H](CO)[C@@H](c3ccc(C#Cc4cccnc4)cc3)[C@H]2C1`, the growth inhibition call is “inactive”.

For `C[C@@H]1CN([C@H](C)CO)C(=O)c2cc(NC(=O)Nc3ccc(C(F)(F)F)cc3)ccc2O[C@@H]1CN(C)Cc1ccc2c(c1)OCO2`, the growth inhibition call was “inactive”.

`C[C@H]1CN([C@@H](C)CO)C(=O)Cc2cc(NC(=O)Nc3ccccc3)ccc2O[C@@H]1CN(C)C(=O)Nc1ccc(C(F)(F)F)cc1`: the growth inhibition call was “inactive”.

`CCCNC(=O)N1C[C@@H](O)COC[C@H]2O[C@@H](CC(=O)NCc3ccncn3)CC[C@@H]21`: the growth inhibition call was “inactive”.

`CC(C)CC#Cc1cnc2c(c1)C(=O)N([C@H](C)CO)C[C@H](C)[C@@H](CN(C)C(=O)CCN1CCCCC1)O2`: the growth inhibition call was “inactive”.

Turning to `O=C(C[C@@H]1CC[C@@H]2[C@H](COC[C@H](O)CN2C(=O)c2ccc3c(c2)OCO3)O1)NCCN1CCCCC1`, the growth inhibition call was “inactive”.

Consider `COc1cc2c(cc1O)CCN[C@]21CS[C@@H]2c3c(OC(C)=O)c(C)c4c(c3[C@H](COC1=O)N1[C@@H]2[C@H]2c3c(cc(C)c(OC)c3O)C[C@@H]([C@@H]1O)N2C)OCO4`, for which the growth inhibition call was “inactive”.

Regarding `CC1(C)OC(=O)C2(C(=O)O1)[C@@H](c1ccc(-c3cccc(-c4ccc(C(=O)O)cc4)c3)cc1)CC(=O)C[C@H]2c1ccccc1`, the growth inhibition call was “inactive”.

Regarding `COc1ccc(NC(=O)N(C)C[C@@H]2Oc3cc(Br)ccc3S(=O)(=O)N([C@H](C)CO)C[C@H]2C)cc1`, the growth inhibition call is “inactive”.

With `CN(C)CCCN1C(=O)[C@@]2(Cc3ccccc31)c1ccccc1C(=O)N(Cc1ccccc1)[C@H]2c1ccc(CO)cc1`, the growth inhibition call is “inactive”.

As for `C[C@H]1CN([C@@H](C)CO)C(=O)c2cc(NS(=O)(=O)c3ccc(Cl)cc3)ccc2O[C@@H]1CN(C)S(C)(=O)=O`, the growth inhibition call was “inactive”.

Turning to `C[C@@H]1CCCCO[C@H](CN(C)Cc2ccc(C(F)(F)F)cc2)[C@@H](C)CN([C@@H](C)CO)C(=O)c2cc(NC(=O)Cc3ccccc3)ccc2O1`, the growth inhibition call is “inactive”.

With `COc1ccc(CNC(=O)C[C@@H]2CC[C@H]3[C@@H](COC[C@H](O)CN3S(=O)(=O)c3ccc(OC)cc3)O2)cc1`, the growth inhibition call is “inactive”.

Turning to `Cc1noc(C)c1S(=O)(=O)Nc1ccc2c(c1)C(=O)N([C@@H](C)CO)C[C@H](C)[C@@H](CN(C)C(=O)Nc1ccc(F)cc1)OCCCC[C@H](C)O2`, the growth inhibition call is “inactive”.

As to `C[C@H](CO)N1C[C@H](C)[C@@H](CN(C)C(=O)Nc2cccc3ccccc23)OCCCC[C@H](C)Oc2ccc(NC(=O)CCCN(C)C)cc2C1=O`, the growth inhibition call is “inactive”.

Consider `C[C@H]1CCCCO[C@H](CN(C)Cc2ccccc2)[C@@H](C)CN([C@@H](C)CO)C(=O)c2cc(NC(=O)Nc3cccc4ccccc34)ccc2O1`, for which the growth inhibition call is “inactive”.

Regarding `Cc1ccc2c(c1)[C@@]1(CC(=O)N(Cc3ccccc3)C1=O)C(=O)N2CCCn1c(=O)c2c(ncn2C)n(C)c1=O`, the growth inhibition call was “inactive”.

Values taken from the antibiotic and cytotoxicity screens of Wong et al. (2023).
